Source: the supplement of paper PMC8728848
The list shows a part of the results.

Experiments:
Assay in all cases: glycan array binding signal (z-score within array); higher = stronger binding
Settings in all cases: glycan notation: IUPAC condensed, linker removed
[1] = target: GalNAc3S(b1-4)[Fuc(a1-3)]GlcNAc
How it was run: (§1)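 Glycan array data came from 3228 arrays in the Consortium for Functional Glycomics database, and only arrays with an available protein sequence were kept. Glycan names were put into IUPAC-condensed notation, and columns mapping to the same glycan were averaged. The binding signal is a within-array Z-score, averaged across arrays of one protein sequence run at different concentrations or buffers and across linkers. A negative Z-score can be read as non-binding.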

[2] = target: GalNAc4S6S(b1-4)GlcNAc
How it was run: as §1

[3] = target: GalNAc6S(b1-4)GlcNAc
How it was run: as §1

[4] = target: Glc(a1-4)Glc
How it was run: as §1

[5] = target: Glc(a1-4)Glc(a1-4)Glc(a1-4)Glc
How it was run: as §1

[6] = target: Glc(a1-6)Glc(a1-6)Glc
How it was run: as §1

[7] = target: Glc(a1-6)Glc(a1-6)Glc(a1-6)Glc
How it was run: as §1

[8] = target: Glc(b1-4)Glc
How it was run: as §1

[9] = target: Glc(b1-6)Glc
How it was run: as §1

[10] = target: GlcA(b1-3)Gal
How it was run: as §1

[11] = target: GlcA(b1-3)GlcNAc
How it was run: as §1

[12] = target: GlcA(b1-6)Gal
How it was run: as §1

[13] = target: GlcA3S(b1-3)Gal(b1-4)GlcNAc(b1-2)Man
How it was run: as §1

[14] = target: GlcA3S(b1-3)Gal(b1-4)GlcNAc(b1-3)Gal(b1-4)Glc
How it was run: as §1

[15] = target: GlcNAc(a1-3)Gal(b1-4)GlcNAc
How it was run: as §1

[16] = target: GlcNAc(a1-4)Gal(b1-3)GlcNAc
How it was run: as §1

[17] = target: GlcNAc(a1-4)Gal(b1-4)GalNAc
How it was run: as §1

[18] = target: GlcNAc(a1-4)Gal(b1-4)GlcNAc
How it was run: as §1

[19] = target: GlcNAc(a1-4)Gal(b1-4)GlcNAc(b1-3)Gal(b1-4)Glc
How it was run: as §1

[20] = target: GlcNAc(a1-4)Gal(b1-4)GlcNAc(b1-3)Gal(b1-4)GlcNAc
How it was run: as §1

[21] = target: GlcNAc(a1-4)Gal(b1-4)GlcNAc(b1-3)Gal(b1-4)GlcNAc(b1-3)Gal(b1-4)GlcNAc
How it was run: as §1

[22] = target: GlcNAc(a1-4)Gal(b1-4)GlcNAc(b1-3)Gal(b1-4)[Fuc(a1-3)]GlcNAc(b1-3)Gal(b1-4)[Fuc(a1-3)]GlcNAc
How it was run: as §1

[23] = target: GlcNAc(a1-6)Gal(b1-4)GlcNAc
How it was run: as §1

[24] = target: GlcNAc(b1-2)Gal(b1-3)GalNAc
How it was run: as §1

[25] = target: GlcNAc(b1-2)Man(a1-3)[GlcNAc(b1-2)Man(a1-6)]Man(b1-4)GlcNAc(b1-4)GlcNAc
How it was run: as §1

[26] = target: GlcNAc(b1-2)Man(a1-3)[GlcNAc(b1-2)Man(a1-6)]Man(b1-4)GlcNAc(b1-4)[Fuc(a1-6)]GlcNAc
How it was run: as §1

[27] = target: GlcNAc(b1-2)Man(a1-3)[GlcNAc(b1-4)][GlcNAc(b1-2)Man(a1-6)]Man(b1-4)GlcNAc(b1-4)GlcNAc
How it was run: as §1

[28] = target: GlcNAc(b1-2)Man(a1-3)[GlcNAc(b1-4)][GlcNAc(b1-2)Man(a1-6)]Man(b1-4)GlcNAc(b1-4)[Fuc(a1-6)]GlcNAc
How it was run: as §1

[29] = target: GlcNAc(b1-2)[GlcNAc(b1-4)]Man(a1-3)[GlcNAc(b1-2)Man(a1-6)]Man(b1-4)GlcNAc(b1-4)GlcNAc
How it was run: as §1

[30] = target: GlcNAc(b1-2)[GlcNAc(b1-4)]Man(a1-3)[GlcNAc(b1-4)][GlcNAc(b1-2)Man(a1-6)]Man(b1-4)GlcNAc(b1-4)GlcNAc
How it was run: as §1

[31] = target: GlcNAc(b1-2)[GlcNAc(b1-4)]Man(a1-3)[GlcNAc(b1-4)][GlcNAc(b1-2)[GlcNAc(b1-6)]Man(a1-6)]Man(b1-4)GlcNAc(b1-4)GlcNAc
How it was run: as §1

[32] = target: GlcNAc(b1-2)[GlcNAc(b1-4)]Man(a1-3)[GlcNAc(b1-4)][GlcNAc(b1-2)[GlcNAc(b1-6)]Man(a1-6)]Man(b1-4)GlcNAc(b1-4)[Fuc(a1-6)]GlcNAc
How it was run: as §1

[33] = target: GlcNAc(b1-2)[GlcNAc(b1-6)]Man(a1-6)[GlcNAc(b1-2)Man(a1-3)]Man(b1-4)GlcNAc(b1-4)GlcNAc
How it was run: as §1

[34] = target: GlcNAc(b1-2)[GlcNAc(b1-6)]Man(a1-6)[GlcNAc(b1-2)Man(a1-3)]Man(b1-4)GlcNAc(b1-4)[Fuc(a1-6)]GlcNAc
How it was run: as §1

[35] = target: GlcNAc(b1-2)[GlcNAc(b1-6)]Man(a1-6)[GlcNAc(b1-4)][GlcNAc(b1-2)Man(a1-3)]Man(b1-4)GlcNAc(b1-4)GlcNAc
How it was run: as §1

[36] = target: GlcNAc(b1-3)Fuc
How it was run: as §1

[37] = target: GlcNAc(b1-3)Gal
How it was run: as §1

[38] = target: GlcNAc(b1-3)Gal(b1-3)GalNAc
How it was run: as §1

B1: Cohesin-hDECTIN-1 (Homo sapiens) (protein)
chain: LDITSHHHHHHDDLDAVRIKVDTVNAKPGDTVRIPVRFSGIPSKGIANCDFVYSYDPNVLEIIEIEPGDIIVDPNPDKSFDTAVYPDRKIIVFLFAEDSGTGAYAITKDGVFATIVAKVKEGAPNGLSVIKFVEVGGFANNDLVEQKTQFFDGGVNVGDTTEPATPTTPVTTPTTTDDLDAASSSPCPPNWIIYEKSCYLFSMSLNSWDGSKRQCWQLGSNLLKIDSSNELGFIVKQVSSQPDNSFWIGLSRPQTEVPWLWEDGSTFSSNLFQIRTTATQENPSPNCVWIHVSVIYDQLCSVPSYSICEKKFM
- glycan array binding signal (z-score) [1]: -0.609
- glycan array binding signal (z-score) [2]: -0.296
- glycan array binding signal (z-score) [3]: 4.98
- glycan array binding signal (z-score) [4]: -0.37
- glycan array binding signal (z-score) [5]: -0.483
- glycan array binding signal (z-score) [6]: -0.401
- glycan array binding signal (z-score) [7]: -0.297
- glycan array binding signal (z-score) [8]: -0.243
- glycan array binding signal (z-score) [9]: 0.231
- glycan array binding signal (z-score) [10]: -0.596
- glycan array binding signal (z-score) [11]: -0.33
- glycan array binding signal (z-score) [12]: -0.483
- glycan array binding signal (z-score) [13]: -0.635
- glycan array binding signal (z-score) [14]: -0.469
- glycan array binding signal (z-score) [15]: -0.231
- glycan array binding signal (z-score) [16]: -0.52
- glycan array binding signal (z-score) [17]: -0.313
- glycan array binding signal (z-score) [18]: -0.565
- glycan array binding signal (z-score) [19]: -0.307
- glycan array binding signal (z-score) [20]: -0.476
- glycan array binding signal (z-score) [21]: -0.523
- glycan array binding signal (z-score) [22]: -0.178
- glycan array binding signal (z-score) [23]: -0.374
- glycan array binding signal (z-score) [24]: -0.185
- glycan array binding signal (z-score) [25]: -0.418
- glycan array binding signal (z-score) [26]: -0.032
- glycan array binding signal (z-score) [27]: -0.224
- glycan array binding signal (z-score) [28]: -0.239
- glycan array binding signal (z-score) [29]: -0.267
- glycan array binding signal (z-score) [30]: -0.311
- glycan array binding signal (z-score) [31]: -0.117
- glycan array binding signal (z-score) [32]: -0.586
- glycan array binding signal (z-score) [33]: -0.373
- glycan array binding signal (z-score) [34]: -0.174
- glycan array binding signal (z-score) [35]: -0.546
- glycan array binding signal (z-score) [36]: -0.594
- glycan array binding signal (z-score) [37]: -0.42
- glycan array binding signal (z-score) [38]: -0.12
